Source: the supplement of paper PMC8728848
The other results are listed elsewhere or left out.

Experiments:
Assay in all cases: glycan array binding signal (z-score within array); higher = stronger binding
Settings in all cases: glycan notation: IUPAC condensed, linker removed
[1] = biological target: Neu5Ac(a2-6)Gal(b1-4)GlcNAc(b1-2)Man(a1-3)[Neu5Ac(a2-6)Gal(b1-4)GlcNAc(b1-2)Man(a1-6)]Man(b1-4)GlcNAc(b1-4)GlcNAc
Outline: (§1)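 Glycan array binding is given as a within-array Z-score, which can be read as non-binding when negative. The arrays, 3228 of them, came from the Consortium for Functional Glycomics database and were retained only where the protein sequence was available. Z-scores were averaged across arrays of the same protein sequence at different concentrations or buffers and across linkers.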

[2] = biological target: Neu5Ac(a2-6)Gal(b1-4)GlcNAc(b1-2)Man(a1-6)Man(b1-4)GlcNAc(b1-4)GlcNAc
Outline: as §1

[3] = biological target: Neu5Ac(a2-6)Gal(b1-4)GlcNAc(b1-2)Man(a1-6)[Gal(b1-4)GlcNAc(b1-2)Man(a1-3)]Man(b1-4)GlcNAc(b1-4)GlcNAc
Outline: as §1

[4] = biological target: Neu5Ac(a2-6)Gal(b1-4)GlcNAc(b1-2)Man(a1-6)[GlcNAc(b1-2)Man(a1-3)]Man(b1-4)GlcNAc(b1-4)GlcNAc
Outline: as §1

[5] = biological target: Neu5Ac(a2-6)Gal(b1-4)GlcNAc(b1-2)Man(a1-6)[Man(a1-3)]Man(b1-4)GlcNAc(b1-4)GlcNAc
Outline: as §1

[6] = biological target: Neu5Ac(a2-6)Gal(b1-4)GlcNAc(b1-3)Gal(b1-3)GlcNAc
Outline: as §1

[7] = biological target: Neu5Ac(a2-6)Gal(b1-4)GlcNAc(b1-3)Gal(b1-4)GlcNAc
Outline: as §1

[8] = biological target: Neu5Ac(a2-6)Gal(b1-4)GlcNAc(b1-3)Gal(b1-4)GlcNAc(b1-3)Gal(b1-4)GlcNAc
Outline: as §1

[9] = biological target: Neu5Ac(a2-6)Gal(b1-4)GlcNAc(b1-3)Gal(b1-4)[Fuc(a1-3)]GlcNAc(b1-3)Gal(b1-4)[Fuc(a1-3)]GlcNAc
Outline: as §1

[10] = biological target: Neu5Ac(a2-6)Gal(b1-4)GlcNAc(b1-3)GalNAc
Outline: as §1

[11] = biological target: Neu5Ac(a2-6)Gal(b1-4)GlcNAc6S
Outline: as §1

Neu5Ac(a2-6)GalNAc = biological target: Neu5Ac(a2-6)GalNAc
Outline: as §1

[12] = biological target: Neu5Ac(a2-6)GalNAc(b1-4)GlcNAc
Outline: as §1

[13] = biological target: Neu5Ac(a2-6)GlcNAc(b1-4)GlcNAc
Outline: as §1

[14] = biological target: Neu5Ac(a2-6)GlcNAc(b1-4)GlcNAc(b1-4)GlcNAc
Outline: as §1

Neu5Ac(a2-8)Neu5Ac = biological target: Neu5Ac(a2-8)Neu5Ac
Outline: as §1

[15] = biological target: Neu5Ac(a2-8)Neu5Ac(a2-3)Gal(b1-4)Glc
Outline: as §1

[16] = biological target: Neu5Ac(a2-8)Neu5Ac(a2-3)[GalNAc(b1-4)]Gal(b1-4)Glc
Outline: as §1

[17] = biological target: Neu5Ac(a2-8)Neu5Ac(a2-8)Neu5Ac
Outline: as §1

[18] = biological target: Neu5Ac(a2-8)Neu5Ac(a2-8)Neu5Ac(a2-3)Gal(b1-4)Glc
Outline: as §1

[19] = biological target: Neu5Ac(a2-8)Neu5Ac(a2-8)Neu5Ac(a2-3)[GalNAc(b1-4)]Gal(b1-4)Glc
Outline: as §1

[20] = biological target: Neu5Ac(a2-8)Neu5Ac(a2-8)Neu5Ac(a2-8)Neu5Ac(a2-3)[GalNAc(b1-4)]Gal(b1-4)Glc
Outline: as §1

[21] = biological target: Neu5Ac(b2-6)Gal(b1-4)GlcNAc
Outline: as §1

Neu5Ac(b2-6)GalNAc = biological target: Neu5Ac(b2-6)GalNAc
Outline: as §1

[22] = biological target: Neu5Ac9Ac(a2-3)Gal(b1-3)GlcNAc
Outline: as §1

[23] = biological target: Neu5Ac9Ac(a2-3)Gal(b1-4)GlcNAc
Outline: as §1

[24] = biological target: Neu5Ac9Ac(a2-6)Gal(b1-4)GlcNAc
Outline: as §1

[25] = biological target: Neu5Gc(a2-3)Gal(b1-3)GlcNAc
Outline: as §1

[26] = biological target: Neu5Gc(a2-3)Gal(b1-3)[Fuc(a1-4)]GlcNAc
Outline: as §1

Neu5Gc(a2-3)Gal(b1-4)Glc = biological target: Neu5Gc(a2-3)Gal(b1-4)Glc
Outline: as §1

[27] = biological target: Neu5Gc(a2-3)Gal(b1-4)GlcNAc
Outline: as §1

[28] = biological target: Neu5Gc(a2-3)Gal(b1-4)[Fuc(a1-3)]GlcNAc
Outline: as §1

[29] = biological target: Neu5Gc(a2-6)Gal(b1-4)GlcNAc
Outline: as §1

Neu5Gc(a2-6)GalNAc = biological target: Neu5Gc(a2-6)GalNAc
Outline: as §1

[30] = biological target: Neu5Gc(b2-6)Gal(b1-4)GlcNAc
Outline: as §1

B1: Gal 3 (Homo sapiens), P17931 (protein)
chain: MADNFSLHDALSGSGNPNPQGWPGAWGNQPAGAGGYPGASYPGAYPGQAPPGAYPGQAPPGAYHGAPGAYPGAPAPGVYPGPPSGPGAYPSSGQPSAPGAYPATGPYGAPAGPLIVPYNLPLPGGVVPRMLITILGTVKPNANILDFQRGNDVAFHFNPRFNENNRRVIVCNTKLDNNWGREERQSVFPFESGKPFKIQVLVEPDHFKVAVNDAHLLQYNHRVKKLNEISKLGISGDIDLTSASYTMI
glycan array binding signal (z-score) [1]: -0.378 | glycan array binding signal (z-score) [2]: -0.392 | glycan array binding signal (z-score) [3]: -0.391 | glycan array binding signal (z-score) [4]: -0.392 | glycan array binding signal (z-score) [5]: -0.388 | glycan array binding signal (z-score) [6]: 1.95 | glycan array binding signal (z-score) [7]: 2.28 | glycan array binding signal (z-score) [8]: 2.97 | glycan array binding signal (z-score) [9]: -0.386 | glycan array binding signal (z-score) [10]: -0.388 | glycan array binding signal (z-score) [11]: -0.381 | glycan array binding signal (z-score) (Neu5Ac(a2-6)GalNAc): -0.349 | glycan array binding signal (z-score) [12]: -0.392 | glycan array binding signal (z-score) [13]: -0.394 | glycan array binding signal (z-score) [14]: -0.391 | glycan array binding signal (z-score) (Neu5Ac(a2-8)Neu5Ac): -0.38 | glycan array binding signal (z-score) [15]: -0.36 | glycan array binding signal (z-score) [16]: -0.381 | glycan array binding signal (z-score) [17]: -0.383 | glycan array binding signal (z-score) [18]: -0.383 | glycan array binding signal (z-score) [19]: -0.377 | glycan array binding signal (z-score) [20]: -0.389 | glycan array binding signal (z-score) [21]: -0.382 | glycan array binding signal (z-score) (Neu5Ac(b2-6)GalNAc): -0.388 | glycan array binding signal (z-score) [22]: -0.387 | glycan array binding signal (z-score) [23]: -0.393 | glycan array binding signal (z-score) [24]: -0.393 | glycan array binding signal (z-score) [25]: -0.363 | glycan array binding signal (z-score) [26]: -0.391 | glycan array binding signal (z-score) (Neu5Gc(a2-3)Gal(b1-4)Glc): -0.382 | glycan array binding signal (z-score) [27]: -0.387 | glycan array binding signal (z-score) [28]: -0.368 | glycan array binding signal (z-score) [29]: -0.392 | glycan array binding signal (z-score) (Neu5Gc(a2-6)GalNAc): -0.392 | glycan array binding signal (z-score) [30]: -0.385
